{
  "source": "PubChem BioAssay AID1671193",
  "about": "(National Center for Advancing Translational Sciences (NCATS), 2021)",
  "note": "The campaign covered roughly 150,000 compounds. About 180 (0.12%) were called active. Inconclusive results, whose numbers are uncertain, are shown with a selection of clear calls. The call rests on the fitted dose curve; in most records, active means well fitted cell-killing curve with a large enough effect; inconclusive means small, poorly fitted or top-dose-only effect, or effect the other way; inactive means flat fitted curve, though single readings scatter. A potency beside an inconclusive call is a rough fit, not a confirmed value. Potency means the concentration at half of the fitted maximal effect; tags describe the fitted curve by direction and shape.",
  "data": [
    {"assay": "GF-AFC viability counterscreen for inhibitors of alpha-synuclein gene (SNCA) expression; further: nearly all actives have a fitted effect of over 30% in size;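 on activity change, negative = cytotoxicity: 0% = DMSO-treated cells and -100% = medium-only wells without cells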", "conditions": "HEK-293-SNCA-luc viability, GF-AFC fluorescence, 24 h; activity change, negative = cytotoxicity: at 57.1 µM (top of the series) unless noted", "summary_of_the_method": "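HEK-293-SNCA-luc cells (1500/well) plated 24 h, then exposed 24 h to a dilution series; GF-AFC added 30 min at 37C, fluorescence 405/540 nm; normalised to medium-only and DMSO wells, Hill fit.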", "values": [
      {"smiles": "COc1cc(O)c2c(c1)C1OC1C[C@H](O)[C@H](O)C(=O)C=CC[C@H](C)OC2=O", "note": "(some centres not stated)", "Potency": "inconclusive: 38.3 µM [cytotoxic, single point]"},
      {"smiles": "CCC(C)(C)C(=O)N1CCC(N2C(=O)CCC2C(=O)NCc2ccccc2)CC1", "note": "(configuration not stated)", "Potency": "inconclusive: 28.2 µM [cytotoxic, single point]"},
      {"smiles": "Cc1cccc(C)c1NC(=O)Cn1c(=O)n(Cc2ccc(C(=O)NCc3ccco3)cc2)c(=O)c2sccc21", "activity change, negative = cytotoxicity": "inactive: -28.4%"},
      {"smiles": "CCN1CCN(C(=O)C23CCC=C2N(C2CCCC2)C(=O)CC3)CC1", "note": "(configuration not stated)", "Potency": "inconclusive: 6.31 µM [cytotoxic, single point]"},
      {"smiles": "Cc1ccsc1CN1CCC(Oc2cc(Cl)ccc2C(=O)N2CCCCC2)CC1", "activity change, negative = cytotoxicity": "inactive: -20.7%"},
      {"smiles": "Cc1ccn2c(NC(=O)c3cccc(Cl)c3)c(-c3ccccc3)nc2c1", "Potency": "inconclusive: 14.1 µM [cytotoxic, single point]"},
      {"smiles": "CCOCCCn1c(=N)c(C(=O)NC(C)c2ccccc2)cc2c(=O)n3cc(C)ccc3nc21", "note": "(configuration not stated)", "Potency": "inconclusive: 31.6 µM [rising, partial curve, poor fit]"},
      {"smiles": "COc1ccc(-c2nc3c(c(=O)[nH]2)CCN(C(=O)Cc2ccsc2)C3)cc1", "Potency": "inconclusive: 8.91 µM [cytotoxic, partial curve, poor fit]"},
      {"smiles": "OCc1ccc(CN2C[C@H](O)C[C@H]2c2nc(-c3ccc(F)cc3)no2)o1", "activity change, negative = cytotoxicity": "inactive: -0.02% [at 87.6 µM]"},
      {"smiles": "Cc1ccc(-c2nc3n(n2)C(c2ccccc2Cl)C=C(c2ccc(Cl)cc2)N3)cc1", "note": "(configuration not stated)", "Potency": "inconclusive: 31.6 µM [rising, partial curve]"},
      {"smiles": "COc1ccc(C(=O)Nc2ccc(NC(=O)c3cccs3)cc2)cc1OC", "Potency": "inconclusive: 7.08 µM [cytotoxic, single point]"},
      {"smiles": "COc1ccc(-n2c(=O)c(-c3ccc(F)cc3)nc3cncnc32)cc1", "Potency": "inconclusive: 14.1 µM [cytotoxic, partial curve]"},
      {"smiles": "O=C(N1CCC2(CC1)CC(N(Cc1ccccc1)C1CC1)CCO2)C1(c2ccccc2)CC1", "note": "(configuration not stated)", "Potency": "inconclusive: 25.1 µM [cytotoxic, partial curve, poor fit]"},
      {"smiles": "O=C(Nc1ccccc1C(=O)OCc1cc(=O)n2c3c(sc2n1)CCCC3)c1ccccc1", "Potency": "inconclusive: 15.8 µM [cytotoxic, single point]"},
      {"smiles": "CCS(=O)(=O)N1CCc2nc(-c3ccccc3)[nH]c2C1", "Potency": "inconclusive: 6.31 µM [cytotoxic, single point]"},
      {"smiles": "Cc1cnc(-c2cccnc2)n1CC1CCN(C(=O)c2ccco2)CC1", "Potency": "inconclusive: 8.91 µM [cytotoxic, single point]"},
      {"smiles": "CC(C)C1=NS(=O)(=O)c2cc(NC(=O)c3ccco3)ccc2N1c1ccccc1", "Potency": "inconclusive: 8.91 µM [rising, partial curve]"}
    ]}
  ]
}
